Data from patent publication US20230372407A1, “METHODS FOR MODULATING TLR4 SIGNALING” (President and Fellows of Harvard College, priority 2020, published 2023).

Conditions: relative to LOS

Substance: polysaccharide A [PSA]
- solubility: enhanced solubility
